86 sequences from the supplement of paper PMC3334620 can be followed below.

Over roughly 33,000 sequences, “E-score (-0.5 to 0.5)” has its median near -0.021; the highest 2% begin near 0.32. This is one part of the list.

The target of this experiment is T1, Zap1 (UniProt P47043).
T1 sequence: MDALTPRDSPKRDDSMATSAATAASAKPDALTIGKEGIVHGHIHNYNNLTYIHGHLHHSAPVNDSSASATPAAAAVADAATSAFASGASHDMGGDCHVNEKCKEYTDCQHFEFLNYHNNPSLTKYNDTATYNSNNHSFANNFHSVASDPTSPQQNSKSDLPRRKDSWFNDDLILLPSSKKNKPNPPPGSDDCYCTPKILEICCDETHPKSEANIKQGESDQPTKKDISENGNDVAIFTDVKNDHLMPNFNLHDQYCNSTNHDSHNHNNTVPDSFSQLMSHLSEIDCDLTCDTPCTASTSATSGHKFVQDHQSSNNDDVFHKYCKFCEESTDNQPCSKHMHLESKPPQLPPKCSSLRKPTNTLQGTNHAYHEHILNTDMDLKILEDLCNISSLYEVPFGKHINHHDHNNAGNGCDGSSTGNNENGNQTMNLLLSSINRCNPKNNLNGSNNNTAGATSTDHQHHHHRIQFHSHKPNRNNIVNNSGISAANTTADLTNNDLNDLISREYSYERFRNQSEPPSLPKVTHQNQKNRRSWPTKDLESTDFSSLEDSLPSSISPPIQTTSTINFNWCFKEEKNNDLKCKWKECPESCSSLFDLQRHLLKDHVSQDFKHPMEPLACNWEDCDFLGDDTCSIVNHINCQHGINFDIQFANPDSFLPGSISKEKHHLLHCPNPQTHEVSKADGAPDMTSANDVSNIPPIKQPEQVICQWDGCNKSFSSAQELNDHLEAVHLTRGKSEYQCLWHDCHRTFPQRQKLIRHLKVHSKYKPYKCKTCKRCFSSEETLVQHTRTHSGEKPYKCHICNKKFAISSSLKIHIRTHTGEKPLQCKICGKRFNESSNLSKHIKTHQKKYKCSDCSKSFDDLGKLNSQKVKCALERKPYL
Kind of experiment: PBM E-score (8-mer binding enrichment) (E-score (-0.5 to 0.5)); higher = stronger / more preferred TF binding; most listed sequences are background and not binding sites. The note with it: protein concentration: 200 nM; construct: GST-full length. The method in brief:
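The E-score, a modified Wilcoxon-Mann-Whitney statistic, was computed by the Universal PBM Analysis Suite for every ungapped eight-base word pooled with its reverse complement. Scans behind it were normalised with masliner after bound GST-tagged yeast transcription factors were detected with fluorescent anti-GST. The proteins, at about 100-200 nM, had been applied to universal all-10-mer Agilent arrays made double-stranded by primer extension.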
As for GTCATACA, the “PBM E-score” value was -0.0161.
With AAAGTACG the figure was 0.091; with CGCAATTA, 0.107; with GTTTGATA, 0.149.
For CTATCAGC the value was 0.0383; for CCATTGAA, 0.174.
With GGATCGTA the figure was -0.138.
As to GTCGGCTA, the “PBM E-score” value is -0.139.
With CTAACCCC the figure was 0.178; with GAGGGATA, -0.0761; with ATTACGTG, 0.0274.
As for CGCTTACG, the “PBM E-score” value was -0.315.
For GGATCTAA the value was -0.00806.
With ACACTCCA the figure was -0.0521.
Take CCAAGCAG: the “PBM E-score” value turned out to be 0.00906.
For the sequence AACCAGTC, the “PBM E-score” value amounted to 0.178.
Turning to AGGCGTGG, the “PBM E-score” value was -0.21.
For AATCTGTG the value was -0.18; for AACTAGCG, -0.0485.
As for CTCATGAC, the “PBM E-score” value came to 0.0653.
With AGACGGCG the figure was -0.189.
For AGTCTTTA the value was -0.13; for AGTATCAT, 0.0198; for CCAAGACA, -0.013.
Regarding CTCGCGAC, the “PBM E-score” value was determined as 0.0966.
Take TACGGGCA: the “PBM E-score” value was found to be 0.0915.
ACGCACAT: the “PBM E-score” value was -0.145.
Consider ATAGATAG, for which the “PBM E-score” value is -0.17.
Regarding ATTCCTCA, the “PBM E-score” value turned out to be 0.058.
In the case of ACACGTCA, the “PBM E-score” value was -0.167.
As to CCGAAACA, the “PBM E-score” value worked out at 0.127.
Take AGCTGGAA: the “PBM E-score” value was -0.162.
As for CTTGACTA, the “PBM E-score” value was -0.0131.
As for CAGCCCAC, the “PBM E-score” value was -0.113.
ACTCTCGA: the “PBM E-score” value was 0.0278.
For AGCTAGGG, the “PBM E-score” value is -0.0047.
In the case of CGTATTAA, the “PBM E-score” value worked out at 0.0698.
As for ACCCTATG, the “PBM E-score” value was 0.368.
For ACAGTCCG the value was -0.112; for GCGGGGCC, -0.0181; for ACTATCGC, -0.0428.
For the sequence ACTAAGTC, the “PBM E-score” value is -0.208.
Regarding CCCGGCCC, the “PBM E-score” value was determined as 0.0417.
In the case of TATAAAGA, the “PBM E-score” value amounted to 0.166.
For CTTCTTAC the value was -0.117.
For GCCAATAA the value was 0.143; for AAAGCTGT, -0.081; for AATACGAG, 0.0893.
With AATGAACG the figure was -0.109.
As to AACCTACC, the “PBM E-score” value worked out at 0.268.
For AACCATCC, the “PBM E-score” value stood at 0.0998.
CAGGCTCC: the “PBM E-score” value was -0.345.
As to AACAAAAT, the “PBM E-score” value came out at 0.0834.
On to AGGAGGAC, for which the “PBM E-score” value was -0.272.
Consider CCGCTCTA, for which the “PBM E-score” value is -0.0142.
CAATGGGG: the “PBM E-score” value was determined as 0.156.
For CTGGGGGA, the “PBM E-score” value was -0.279.
Regarding CATAGTTC, the “PBM E-score” value is -0.0247.
For CGAACACC the value was 0.0572.
With TCGTACGA, the “PBM E-score” value was 0.0803.
In the case of GCCTTCCC, the “PBM E-score” value is -0.271.
For GCATGGCC the value was 0.0872; for ATATAATC, -0.0159.
With AACCACGG, the “PBM E-score” value turned out to be 0.124.
On to ATTGGGCC, for which the “PBM E-score” value was 0.0292.
On to CCCAGCGG, for which the “PBM E-score” value was -0.135.
As to CGGCATTA, the “PBM E-score” value turned out to be 0.0847.
With CTGGGTAC the figure was 0.305; with AGTGGAAC, 0.023.
As to ACGGTAGG, the “PBM E-score” value was -0.0223.
Consider AGGTCACT, for which the “PBM E-score” value was found to be 0.25.
On to AGCGAACC, for which the “PBM E-score” value is -0.0358.
On to TAAACCTA, for which the “PBM E-score” value was 0.137.
For TCCGTAGA, the “PBM E-score” value is 0.0934.
For the sequence CAGGCTTA, the “PBM E-score” value is -0.135.
On to AATCATCC, for which the “PBM E-score” value is -0.0964.
As to AAACCGTA, the “PBM E-score” value was 0.184.
Take ATTCGCTA: the “PBM E-score” value is -0.113.
AGGGCGCC: the “PBM E-score” value is -0.232.
Regarding GATATAGA, the “PBM E-score” value was -0.113.
For the sequence CATACGGC, the “PBM E-score” value is -0.103.
Regarding CTCATCAA, the “PBM E-score” value stood at 0.00695.
As for CGATAGCA, the “PBM E-score” value is -0.169.
As to ATGATCTA, the “PBM E-score” value was determined as 0.182.
As for CTCAACCA, the “PBM E-score” value came out at 0.00637.
Consider CGACCCCA, for which the “PBM E-score” value is 0.215.
